Here are results for 6 molecules from article PMC12136788.

To fix the notation:
B1: 11888238_11888358_1290_CDS_ENSMUSG00000049225_ENSMUST00000108301|mouse|control|control (ssRNA)
RNA: GGGAGUUCUACAGUCCGACGAUCCUUUUGAAGGUCAAUGCUCCAUUUGAACUUUACAUCUCCAAAAGCCCUAAAGGGCAUCAGCAAGCCAAGCAGCCGGUCCUGCUUUACCACGCUCUUGGCCUCAUUUUUUGGGUGUUCCAGCAACAGAGGAUUGAGCAUCA
B2: chr7:7679991:7679992:-_ENSG00000106399_ENST00000396682|hu_hu|hu_hu_hu_mus_False|28_78 (ssRNA)
RNA: GGGAGUUCUACAGUCCGACGAUCUGGGAUGAAUCUUUUCCAGCUUCCCCACGAAGCAGACAGGCUUGUCGAUAUACUGUGGUAACAUGCUGGCGUUGACGCGCGCUCUGGGCAAGUGCAUUAUGUCCUCCAUGAUUCUGCCGCCAACAGAGGAUUGAGCAUCA
B3: 126673131_126673816_2393_3pUTR_ENSMUSG00000074657_ENSMUST00000099172|mouse|control|control (ssRNA)
RNA: GGGAGUUCUACAGUCCGACGAUCUCUUCUCGUUCUCUUCAUUCUUCAGCCUCUCAUAGUCGGCCUGAAGCUUCUCCAGCUCUAACUGGAGCUUCUGGUUCAGGUCUUUCAGCUCAUCAAUGGUUUUCUGUUUCUCAUUAAUCUCAACAGAGGAUUGAGCAUCA
B4: chr9:66815617:66815618:-_ENSMUSG00000032370_ENSMUST00000034929|mus_hu|FALSE|FALSE (ssRNA)
RNA: GGGAGUUCUACAGUCCGACGAUCGUCAUGGAAUAUUUUCUGCAUAUAGUCCAAAUAUUUACAUCCUGAAGCUCUCUCUACUAUGGCUGCCAGUAGGGUAUAGCCAAAAGUUGAAUACAAAAACUGACUACCAGGUUUGAAGAACAACAGAGGAUUGAGCAUCA
B5: chr16:32386223:32386224:+_ENSMUSG00000053774_ENSMUST00000115151|mus_hu|motif|central (ssRNA)
RNA: GGGAGUUCUACAGUCCGACGAUCACUCUAAUUUGAUUUUGGGUUUUGUUGGCAGAAAAAGCCCAAGACAUCUGAAAAUUACGGGUAACCUCCGCCAUCCUCCUUACUAAAUGUUGUCUUCUGAAUGGAGUUGAAAGGUCUUCCCAACAGAGGAUUGAGCAUCA
B6: chrX:98862621:98862622:+_ENSMUSG00000034160_ENSMUST00000044475|mus_mus|motif|central (ssRNA)
RNA: GGGAGUUCUACAGUCCGACGAUCCUGCAUCUCCUUUAGAGUGUUUCCCAUAUUGGAAUAAGCAUCAGCAAAUGUAGGACGGAUUCGUAUGGCUUCUUUAUAGUGCAUCAGUGCUUCCUGCAGCUUGCCCUGCUGUUGCAGUACCAACAGAGGAUUGAGCAUCA

This is one part of the list.

The assay has as its target T1, UNK ZnF1-3 (human, UniProt Q9C0B0 31-174).
T1 sequence: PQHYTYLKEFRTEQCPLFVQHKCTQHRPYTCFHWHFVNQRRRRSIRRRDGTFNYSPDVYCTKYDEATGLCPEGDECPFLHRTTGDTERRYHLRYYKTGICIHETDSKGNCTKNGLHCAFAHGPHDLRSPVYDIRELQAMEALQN
Kind of assay: nsRBNS (natural sequence RNA bind-n-seq); RBNS binding buffer (assumed for nsRBNS): 25 mM Tris pH 7.5, 150 mM KCl, 3 mM MgCl2, 0.01% Triton X-100, 500 ug/ml BSA, 20 U/ml SUPERase-In, 4 C; UNK is unkempt and MSI1 is Musashi-1; names of the RNAs are library labels; protein concentration not given here; high values mean tight binding.
Take B1: the binding signal was 0.803 enrichment R.

In turn, B2 returned a binding signal of 0.626 enrichment R.

B3: the binding signal stood at 0.341 enrichment R.

In turn, B4 gave a binding signal of 1.2 enrichment R.

B5 returned a binding signal of 1.15 enrichment R.

Molecule B6 displayed a binding signal of 0.999 enrichment R.
